# Out of some 310,000 compounds screened, about 2,200 (0.71%) showed an effect of 50% or more. The effect is printed as a negative number. The list shows a part of the results.
# Molecular target: human ether-à-go-go-related gene (hERG) potassium channel (human, UniProt Q12809)
# Experiment: primary screen, population patch clamp on CHO cells stably expressing hERG
# Sequence of human ether-à-go-go-related gene (hERG) potassium channel (Q12809 whole entry, looked up): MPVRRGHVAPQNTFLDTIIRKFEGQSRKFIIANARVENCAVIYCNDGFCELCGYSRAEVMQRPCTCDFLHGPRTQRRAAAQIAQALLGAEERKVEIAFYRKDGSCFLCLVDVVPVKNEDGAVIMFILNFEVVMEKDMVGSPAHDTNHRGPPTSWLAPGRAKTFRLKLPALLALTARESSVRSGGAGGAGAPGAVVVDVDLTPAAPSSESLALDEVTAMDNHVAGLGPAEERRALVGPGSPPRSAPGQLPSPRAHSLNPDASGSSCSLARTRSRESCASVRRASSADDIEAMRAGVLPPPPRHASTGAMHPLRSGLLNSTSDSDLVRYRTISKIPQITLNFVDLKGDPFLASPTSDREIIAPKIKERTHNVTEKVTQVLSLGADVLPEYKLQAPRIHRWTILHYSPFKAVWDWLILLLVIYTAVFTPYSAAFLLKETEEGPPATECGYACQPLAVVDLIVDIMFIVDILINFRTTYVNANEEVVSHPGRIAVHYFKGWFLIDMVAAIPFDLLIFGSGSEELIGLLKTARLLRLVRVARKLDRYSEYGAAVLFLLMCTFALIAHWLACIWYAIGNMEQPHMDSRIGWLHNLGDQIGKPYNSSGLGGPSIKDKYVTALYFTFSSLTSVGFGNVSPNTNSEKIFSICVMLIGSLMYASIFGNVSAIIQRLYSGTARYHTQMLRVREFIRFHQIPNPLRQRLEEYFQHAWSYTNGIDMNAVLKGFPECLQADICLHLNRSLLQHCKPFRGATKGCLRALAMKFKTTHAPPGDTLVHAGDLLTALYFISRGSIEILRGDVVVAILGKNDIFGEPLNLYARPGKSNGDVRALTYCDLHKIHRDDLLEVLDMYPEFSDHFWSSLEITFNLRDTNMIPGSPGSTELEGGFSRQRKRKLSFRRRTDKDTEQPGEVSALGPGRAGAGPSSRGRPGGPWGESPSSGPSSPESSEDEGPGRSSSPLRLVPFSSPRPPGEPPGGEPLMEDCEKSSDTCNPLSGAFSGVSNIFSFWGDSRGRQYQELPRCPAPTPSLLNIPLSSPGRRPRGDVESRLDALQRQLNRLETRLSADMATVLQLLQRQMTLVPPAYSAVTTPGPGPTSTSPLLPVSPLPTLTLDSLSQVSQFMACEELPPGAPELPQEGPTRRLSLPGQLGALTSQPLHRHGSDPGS
row,Structure (SMILES),"hERG current change (%, negative = inhibition) at 1uM [%]"
1,Cc1ccc(-c2nc(CSCC(=O)N3CCOCC3)c(C)o2)cc1,-2.76
2,COc1cc(C(C)=O)ccc1OCC(O)CN1CCN(c2cc(C)cc(C)c2)CC1 (centres unmarked),-10.2
3,COCCC(=O)N1CCC(Oc2ccc(C(=O)NCc3ncc(C)[nH]3)cc2)CC1,11.6
4,O=C(NCc1ccccn1)C1CCN(S(=O)(=O)N2CCCCC2)CC1,11.2
5,CCOC(=O)Cc1cc(=O)n2[nH]c(-c3ccccc3)c(-c3ccccc3)c2n1,16
6,O=C(CCC1CCCN(C(=O)c2ccc3c(c2)OCCO3)C1)NCc1ccccc1F (centres unmarked),6.33
7,COC(=O)c1c(O)cc(C(C)(C)C)n(-c2ccccc2)c1=O,4.05
8,Cc1cccc(NC(=O)CN2C(=O)N/C(=C\c3cccn3-c3cccc(C(=O)O)c3)C2=O)c1,13.8
9,COc1ccc(CCC(=O)OCC(=O)NCc2ccccc2)cc1,12.4
10,CCCCC1CCC(C(=O)OCC(=O)N(CCOC)c2c(N)n(Cc3ccccc3)c(=O)[nH]c2=O)CC1 (centres unmarked),12.9
11,CCCCN(C(=O)c1ccc([N+](=O)[O-])o1)c1c(N)n(CC(C)C)c(=O)[nH]c1=O,0.207
12,COc1ccc(S(=O)(=O)N(CC(=O)NC(C)C)Cc2ccccc2)cc1,11.8
13,COC(=O)c1c(SCC(=O)Nc2ccc(C)c(C)c2)nc(=O)[nH]c1C,5.45
14,COCCN(C(=S)Nc1ccc(C)c(C)c1)C(C)c1ccco1 (centres unmarked),4.68
15,C/C=C\C=C\C(=O)N1CC2(CC(c3cccc(NC(=O)/C(C)=C\C)c3)=NO2)C[C@H]1C(N)=O (some centres unmarked),9.8
16,CC(C(=O)NCC1CCCO1)N1C(=O)C2C3CC(C(Br)C3Br)C2C1=O (centres unmarked),2.97
17,Cc1ccc(C(=O)OCc2nc3ccsc3c(=O)[nH]2)o1,9.14
18,COc1ccc(NC(=O)CC2C(=O)N(Cc3ccco3)C(=S)N2C(C)C)cc1 (centres unmarked),-6.03
19,O=C(Nc1ccccc1N1CCCC1)c1ccccc1Cl,9.44
20,CCn1nnnc1SCC(=O)N1CCN(Cc2ccc3c(c2)OCCO3)CC1,11.7
21,COC(=O)CN(C#N)c1nc(SC)nc(N(C)C)n1,7.99
22,Cc1ccc(S(=O)(=O)NCc2ccc(C(=O)NCCCN3CCN(C)CC3)cc2)cc1,13.4
23,O=C(COC(=O)c1n[nH]c2ccccc12)NC(=O)NC1CCCC1,7.24

row,Structure (SMILES),"hERG current change (%, negative = inhibition) at 1uM [%]"
1,O=C(CCS(=O)(=O)c1ccccc1)NC12CC3CC(CC(C3)C1)C2,12.3
2,CCOC(=O)CSc1nnc(NC(=O)c2cccc(S(=O)(=O)N3CCCCCC3)c2)s1,7.18
3,COc1ccccc1NC(=O)CSc1nnc(C)o1,11.4
4,CCOc1cccc(NC(=O)CSc2nncn2N)c1,9.83
5,COc1cccc(C(=O)Nc2ccc(NC(=O)C3CC3)cn2)c1,8.76
6,CCC1CCCCN1CCCNC(=O)c1c(O)nc2c(C)cccn2c1=O (centres unmarked),9.14
7,COc1ccc(-c2nc3c4c(ncn3n2)-c2ccccc2CC42CCCC2)cc1,9.98
8,CCS(=O)(=O)N1CCCC(C(=O)NCCN2CCC(Cc3ccccc3)CC2)C1 (centres unmarked),-11.4
9,CCOc1ccc(/C=N/NC(=O)c2cc(-c3ccccc3)nc3ccccc23)cc1O,3.53
10,CCOC(=O)N1CCN(CCC(=O)Nc2ccccc2)CC1,12
11,CS(=O)(=O)N1CCC2(CC1)OCCN2S(=O)(=O)c1ccccc1,-2.42
12,COc1ccc(OCCOC(=O)CNC(=O)c2ccc(C)cc2)cc1,4.75
13,Cc1oc(-c2ccc(-c3ccccc3)cc2)nc1CN(C)C1CCOC1 (centres unmarked),-2.9
14,Cc1nc2ccc(S(=O)(=O)NCC(=O)N3CCN(c4ccccn4)CC3)cc2s1,10.9
15,CC(C)N(Cc1ccccc1)C(=O)CC(=O)N(Cc1ccccc1)C(C)C,11.1
16,Cc1ccc(-n2ncc3c2CCCC3NC(=O)c2ccccc2N2CCOCC2)cc1C (centres unmarked),4.62
17,CCc1ccc(NC(=O)CSc2nnc(C3CC3)n2CC2CCCO2)cc1 (centres unmarked),6.4
18,C=CCN1C(=O)/C(=C2\SC(N3CCOCC3)=NC2=O)c2cc(Br)ccc21,8.18
19,CCCOc1cccc(C(=O)NC(=S)Nc2cccc(NC(=O)c3ccccc3Cl)c2)c1,8.78
20,O=C(NCC1CCCO1)c1cc2c([nH]c3ccccc32)c(-c2cccc(Br)c2)n1 (centres unmarked),-0.0832
21,CC(Oc1ccc(Cl)cc1)C(=O)NCCCn1ccnc1 (centres unmarked),5.41
22,Cn1c2ccccc2c2cnn(CC(=O)NCCCN3CCN(c4ccccc4F)CC3)c(=O)c21,-41.8
23,Cc1ccc(OCC(=O)Nc2ccccc2-c2ccccc2)cc1,14.6

row,Structure (SMILES),"hERG current change (%, negative = inhibition) at 1uM [%]"
1,O=C(CSc1nnc(-c2ccncc2)o1)Nc1cc(F)ccc1F,10.4
2,CCOCCCNC(=O)C(NC(=O)CNC(=O)c1ccccc1)c1ccc(OC)cc1 (centres unmarked),14
3,COc1cccc(NC(=O)C2CCN(S(=O)(=O)c3ccc4[nH]c(=O)oc4c3)CC2)c1,13
4,S=C(NCc1ccccc1)NCc1ccccn1,9.06
5,CCOc1ccc(NC(=O)CC2C(=O)NCCN2C(=O)c2ccc(Cl)cc2)cc1 (centres unmarked),-0.94
6,CCOc1ccc(N(CC(=O)NC2CCCC2)S(=O)(=O)c2ccccc2)cc1,8.51
7,CCOC(=O)NC(=O)c1cn(CCN(C)C)c(=O)[nH]c1=O,14
8,CCOc1cc(N2CCOCC2)c(OCC)cc1NC(=O)COC(=O)COc1cc(C)cc(C)c1,12.2
9,Cc1cc([N+](=O)[O-])ccc1NCc1ccc2c(c1)OCCO2,14.3
10,Cc1c(O)cc2c(c1O)C(=O)CC(c1ccccc1)O2 (centres unmarked),4.54
11,Cc1ccccc1OCc1nc2ccccc2[nH]1,11.7
12,COc1cc(Cl)ccc1NC(=O)COc1ccccc1C(=O)N1CCN(c2ccc(O)cc2)CC1,-27.3
13,COc1cc(/C=C(\C#N)c2nc3ccccc3[nH]2)ccc1O,5.6
14,CC(C)CCc1noc(CN2CCN(c3ccc(Cl)cn3)CC2)n1,1.59
15,O=S(=O)(NCC(c1cccnc1)N1CCOCC1)c1ccccc1 (centres unmarked),5.87
16,CN(CCOc1ccccc1)c1ccc(S(=O)(=O)N2CCCCC2)cn1,-6.08
17,Cc1c(C(=O)Nc2c3c(nn2C(C)(C)C)CS(=O)(=O)C3)cccc1[N+](=O)[O-],11.8
18,CCCCOc1ccc(C(=O)N2CCCCCC2)cc1,1.28
19,Cc1ccc2[nH]c(-c3ccccc3)c(CN3CCCC3)c(=O)c2c1,10.5
20,Nc1[nH]nc2c1NN(c1ccc(Cl)cc1Cl)N2,14.1
21,CSc1ccc(/C=C2\NC(=O)NC2=O)cc1,8.77
22,Clc1ccc(Cl)c(OCCCCN2CCCCC2)c1,-3.66
23,COc1cc(C(=O)NC(C)c2ccccc2)ccc1OCC(=O)N1CCOCC1 (centres unmarked),5.96

row,Structure (SMILES),"hERG current change (%, negative = inhibition) at 1uM [%]"
1,COc1ccc(C2NC(=O)c3ccccc3N2)cc1OC (centres unmarked),13.2
2,C=CCOn1c(C)c(C(C)=O)c2c3nonc3ccc21,13.1
3,O=C(CCN1C(=O)/C(=C\c2ccccc2)SC1=S)NNC(=O)c1ccccc1O,14.5
4,CCc1nc(SCC(=O)Nc2ccc(C(=O)O)cc2)n[nH]1,14.2
5,O=C(Nc1cccc(C(=O)O)c1)/C(=C\C=C\c1ccccc1)NC(=O)c1ccccc1,13.5
6,O=C(Nc1ccc2c(c1)OCO2)C1CC(=O)N(c2cccc(Cl)c2)C1 (centres unmarked),6.68
7,CCCS(=O)(=O)N1CCCC(C(=O)NCCc2ccc(Cl)cc2)C1 (centres unmarked),-15.1
8,CCOC(=O)c1ccccc1NC(=O)COC(=O)C1CCN(S(=O)(=O)c2ccccc2C(=O)OC)CC1,7.8
9,Cc1nc(NCc2ccc3c(c2)OCO3)c2oc3ccccc3c2n1,10.6
10,Clc1cccc(CN2CCCCCCC2)c1Cl,5.7
11,C=CCn1c(-c2cc(-c3ccccc3)sc2N)n[nH]c1=S,6.63
12,Cc1c(C)n(C(=O)CSc2ncn[nH]2)c2ccccc12,10.1
13,CN(C)C(=O)C1Cc2ccccc2CN1S(=O)(=O)c1ccc(F)cc1 (centres unmarked),14.3
14,Cc1c(NC(=O)C(C)N2C(=O)C3CCCCC3C2=O)c(=O)n(-c2ccccc2)n1C (centres unmarked),8.81
15,Cc1ccc(S(=O)(=O)Oc2ccc(/C=C3\C(=N)N4N=C(S(C)(=O)=O)SC4=NC3=O)cc2)cc1,5.75
16,CC(=O)c1sc(Nc2cccc(C)c2)nc1C,8.75
17,COc1ccc(NC(=O)C(Br)C(C)C)cc1 (centres unmarked),14.8
18,COc1ccc2cc(S(=O)(=O)N3CCCC3)ccc2c1,12.5
19,C/C(=N\NC(=O)c1ccc(NS(=O)(=O)c2cccs2)cc1)c1ccccn1,8.15
20,OC(c1ccccc1)c1nc2ccccc2[nH]1 (centres unmarked),16.5

# Reference: publication PMC4336329 (PLoS ONE, 2015)
